In article PMC10184318, “The fission yeast cytokinetic ring component Fic1 promotes septum formation” (Biology Open, 2023):
These are yes or no findings as the source states them, for the method shown. Binding seen in cells or lysates may run through a third protein. Some binding calls cover weakened binding; strength is not graded here. For some assays here: Where a sequence is shown, tags or fusion partners need not be part of it.

T1: Cyk3-SH3-W43S-GST (S. pombe) (UniProt O14302)
T1 sequence: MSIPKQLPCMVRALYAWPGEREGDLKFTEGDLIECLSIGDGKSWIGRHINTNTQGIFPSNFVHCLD

T2: Cyk3-SH3-GST (aa1-66) (S. pombe) (UniProt O14302)
T2 sequence: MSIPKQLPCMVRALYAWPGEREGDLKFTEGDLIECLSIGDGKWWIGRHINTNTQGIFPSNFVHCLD

T3: Cdc15 (S. pombe (endogenous in S. pombe cells)) (UniProt Q09822)
T3 sequence: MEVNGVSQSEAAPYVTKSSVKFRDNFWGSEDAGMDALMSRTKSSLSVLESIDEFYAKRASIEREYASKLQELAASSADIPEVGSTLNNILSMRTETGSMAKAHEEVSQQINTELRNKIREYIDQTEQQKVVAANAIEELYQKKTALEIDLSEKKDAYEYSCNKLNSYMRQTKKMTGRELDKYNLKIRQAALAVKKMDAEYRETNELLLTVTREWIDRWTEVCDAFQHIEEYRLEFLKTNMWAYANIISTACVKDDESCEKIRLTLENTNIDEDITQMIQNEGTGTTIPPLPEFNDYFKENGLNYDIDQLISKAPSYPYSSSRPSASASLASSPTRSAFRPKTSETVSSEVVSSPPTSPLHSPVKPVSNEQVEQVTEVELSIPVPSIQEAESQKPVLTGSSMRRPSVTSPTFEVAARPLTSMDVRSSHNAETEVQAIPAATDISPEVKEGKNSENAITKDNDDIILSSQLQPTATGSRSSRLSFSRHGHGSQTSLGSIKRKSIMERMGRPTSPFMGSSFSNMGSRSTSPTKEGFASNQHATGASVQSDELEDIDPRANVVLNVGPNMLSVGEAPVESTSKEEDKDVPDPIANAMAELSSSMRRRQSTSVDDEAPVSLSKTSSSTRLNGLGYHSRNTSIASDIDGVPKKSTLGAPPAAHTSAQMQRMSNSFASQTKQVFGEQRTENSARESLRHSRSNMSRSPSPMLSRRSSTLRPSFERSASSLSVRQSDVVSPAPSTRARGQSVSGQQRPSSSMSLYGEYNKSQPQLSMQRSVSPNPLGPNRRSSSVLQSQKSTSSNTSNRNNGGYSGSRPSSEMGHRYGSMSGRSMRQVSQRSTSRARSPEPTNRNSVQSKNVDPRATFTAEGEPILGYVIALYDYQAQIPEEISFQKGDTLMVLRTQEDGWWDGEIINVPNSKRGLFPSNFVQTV

B1: Fic1-FLAG3 (protein, UniProt O94701 1-272)
chain: MSKNPLGTLVVRIWKAKNLPNKALVGKQSPYCVCRVGEVVKRTQTDKRSGQEPSWNAVLEFNIPSESYHIMKITVFHEGFRKHPHLIGDTVLSFEKAMKEELQSEWYELKNEFQFAGELSVQFKFIPTDPLYFDRASSKPVLQFPYSSVAALTPVPKKPSKPSKPRKKVPVSHPLPPTPPSREEHVSVPRESSLFTYEDDPLPSFPSPYMVDDYYTQDVFVSDNVNDYSYGVQNPTNPRLSVEDYDANHSSLPPVPPPHLILPTASSSQIFH
B2: Cyk3-W43S (protein, UniProt O14302 1-886)
chain: MSIPKQLPCMVRALYAWPGEREGDLKFTEGDLIECLSIGDGKSWIGRHINTNTQGIFPSNFVHCLDIPTVRPGSSMSRTSASSFRYSSPQKSSIDTPITSSDQGLTPDLVGSSNALNKPTRESDSLKHQKSHPMLNSLGSSLSLKKSVSRPPSSMSRTNLDVSSRWDNTADNDSQIDAQDLSRSTPSPLRSAMENVLQSLNAMGKKSFSRANSPLLRLTKSTTTSKETDFIPVPPAHGSTSMTSRSKLDDSTDNSSKPRTSLQPGESPMKSSRDISRKPSMASSVLSPSDYFPQHRRFQSAPAPIPRPVSTLIPLTQVRTTASNVIKPRPQTTERPSTAQSFRKGGGFLKKTFKKLLRRGSSKRKPSLQPTPPVSYPAHNVPQKGVRPASPHTLKSVKDDLKRTKTYTKAEFAAKREEIFNKLSMPVYEPLKDLSECIGNVLADGEPVQFSVGTNIHNMNFSAIDKQIRSIIPQRVQVSPAVLAKNYLAPGQTTALAQMRAVFIYISERITFTNQTLDNDELRTSTQVISEGQGTPFEVALLVKEMLQALDLWCEVIEGYLKSPDDIYYTRDININHAWNVVTFDNEVRLIDASFASPTHPQQALKSSSSNDFYFLMKPNECIFTHVPENPDQQFIMPDLSMPIVMALPWVSSVYFTLGLKLRKFNTSILHLNDLEVLQIEFLAPKDIECVAEVDALSALAPTADVSQCYKYTLTQAFWETPDIRVMRVKAVMPANNRAAVLRIYAGRLGVSSPVRTAPHPMAMSLPFVHHGKNKALEFVTRHPVPHCPSVDLYINSPQCGTLHSGVEYKFNVSAYACQPSTSISNTRLAIQTPTGNIVRLREERSGNGVIFFSLSLTINETGEYRALILAEKIGRWVVYATWQAV
B3: Cyk3-H577A (protein, UniProt O14302 1-886)
chain: MSIPKQLPCMVRALYAWPGEREGDLKFTEGDLIECLSIGDGKWWIGRHINTNTQGIFPSNFVHCLDIPTVRPGSSMSRTSASSFRYSSPQKSSIDTPITSSDQGLTPDLVGSSNALNKPTRESDSLKHQKSHPMLNSLGSSLSLKKSVSRPPSSMSRTNLDVSSRWDNTADNDSQIDAQDLSRSTPSPLRSAMENVLQSLNAMGKKSFSRANSPLLRLTKSTTTSKETDFIPVPPAHGSTSMTSRSKLDDSTDNSSKPRTSLQPGESPMKSSRDISRKPSMASSVLSPSDYFPQHRRFQSAPAPIPRPVSTLIPLTQVRTTASNVIKPRPQTTERPSTAQSFRKGGGFLKKTFKKLLRRGSSKRKPSLQPTPPVSYPAHNVPQKGVRPASPHTLKSVKDDLKRTKTYTKAEFAAKREEIFNKLSMPVYEPLKDLSECIGNVLADGEPVQFSVGTNIHNMNFSAIDKQIRSIIPQRVQVSPAVLAKNYLAPGQTTALAQMRAVFIYISERITFTNQTLDNDELRTSTQVISEGQGTPFEVALLVKEMLQALDLWCEVIEGYLKSPDDIYYTRDININAAWNVVTFDNEVRLIDASFASPTHPQQALKSSSSNDFYFLMKPNECIFTHVPENPDQQFIMPDLSMPIVMALPWVSSVYFTLGLKLRKFNTSILHLNDLEVLQIEFLAPKDIECVAEVDALSALAPTADVSQCYKYTLTQAFWETPDIRVMRVKAVMPANNRAAVLRIYAGRLGVSSPVRTAPHPMAMSLPFVHHGKNKALEFVTRHPVPHCPSVDLYINSPQCGTLHSGVEYKFNVSAYACQPSTSISNTRLAIQTPTGNIVRLREERSGNGVIFFSLSLTINETGEYRALILAEKIGRWVVYATWQAV
B4: Cyk3 (protein, UniProt O14302 1-886)
chain: MSIPKQLPCMVRALYAWPGEREGDLKFTEGDLIECLSIGDGKWWIGRHINTNTQGIFPSNFVHCLDIPTVRPGSSMSRTSASSFRYSSPQKSSIDTPITSSDQGLTPDLVGSSNALNKPTRESDSLKHQKSHPMLNSLGSSLSLKKSVSRPPSSMSRTNLDVSSRWDNTADNDSQIDAQDLSRSTPSPLRSAMENVLQSLNAMGKKSFSRANSPLLRLTKSTTTSKETDFIPVPPAHGSTSMTSRSKLDDSTDNSSKPRTSLQPGESPMKSSRDISRKPSMASSVLSPSDYFPQHRRFQSAPAPIPRPVSTLIPLTQVRTTASNVIKPRPQTTERPSTAQSFRKGGGFLKKTFKKLLRRGSSKRKPSLQPTPPVSYPAHNVPQKGVRPASPHTLKSVKDDLKRTKTYTKAEFAAKREEIFNKLSMPVYEPLKDLSECIGNVLADGEPVQFSVGTNIHNMNFSAIDKQIRSIIPQRVQVSPAVLAKNYLAPGQTTALAQMRAVFIYISERITFTNQTLDNDELRTSTQVISEGQGTPFEVALLVKEMLQALDLWCEVIEGYLKSPDDIYYTRDININHAWNVVTFDNEVRLIDASFASPTHPQQALKSSSSNDFYFLMKPNECIFTHVPENPDQQFIMPDLSMPIVMALPWVSSVYFTLGLKLRKFNTSILHLNDLEVLQIEFLAPKDIECVAEVDALSALAPTADVSQCYKYTLTQAFWETPDIRVMRVKAVMPANNRAAVLRIYAGRLGVSSPVRTAPHPMAMSLPFVHHGKNKALEFVTRHPVPHCPSVDLYINSPQCGTLHSGVEYKFNVSAYACQPSTSISNTRLAIQTPTGNIVRLREERSGNGVIFFSLSLTINETGEYRALILAEKIGRWVVYATWQAV

Experiments:
[1] = biological target: T1, Cyk3-SH3-W43S-GST (S. pombe); test: pull-down; bead-bound Cyk3-SH3-GST recombinant proteins incubated with lysate of cps1-191 fic1-FLAG3 S. pombe cells (36°C for 3 h before lysis); Cyk3 lysis buffer (50 mM Tris pH 7.5, 150 mM NaCl, 1 mM EDTA, 50 mM NaF, 0.5% NP-40, 0.1% SDS, 1 mM DTT); 4°C, 1 h; three washes; anti-FLAG immunoblot; only the target purified
[2] = biological target: T2, Cyk3-SH3-GST (aa1-66) (S. pombe); test: as above
[3] = biological target: T3, Cdc15 (S. pombe (endogenous in S. pombe cells)); test: co-IP; co-immunoprecipitation with Cdc15 from lysates of S. pombe cells arrested in prometaphase by nda3-KM311

Binder | binding [1] | binding [2] | binding [3]
B1 | no binding | binds | –
B2 | – | – | binds
B3 | – | – | binds
B4 | – | – | binds
